Experimental data taken from PubChem BioAssay AID686978 (National Center for Advancing Translational Sciences (NCATS), 2013).
About 64,000 (15%) of roughly 420,000 compounds were called active. The inconclusive results got no clear call from the source; some entries with a clear call stand among them for comparison. The call rests on the fitted dose curve; in most records, active means well fitted inhibition curve with a large enough effect; inconclusive means small, poorly fitted or top-dose-only effect; inactive means flat fitted curve, though single readings scatter. Potencies of inconclusive entries are left out as doubtful fits.

experiment: qHTS for Inhibitors of human tyrosyl-DNA phosphodiesterase 1 (TDP1): qHTS in cells in absence of CPT; conditions: DT40 Tdp1-/- hTDP1 cells, no CPT, ATP luminescence, 48 h; activity change, negative = growth inhibition: at 46.2 µM (top of the series); further: nearly all actives have a fitted effect of over 55% in size
In short: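 Compound effects on proliferation are scored in DT40 Tdp1-/-;hTDP1 cells in the absence of CPT. ATP levels (CellTiter-Glo luminescence) are recorded after a ≥48 hr, 37 °C incubation.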
On the % scale 0 is the no-effect control and ±100 the full control effect; potency means the concentration at half of the fitted maximal effect; tags describe the fitted curve by direction and shape.

SMILES | Potency | activity change, negative = growth inhibition
Clc1ccc(-c2noc3ncnc(NCCc4ccccc4)c23)cc1 | inconclusive [inhibitor, partial curve] | –
CCC/C(=N\NC(=O)C1CC1)c1ccc(Br)cc1 | – | inactive: 17%
O=C1OC(OC(=O)c2cccnc2Nc2cccc(C(F)(F)F)c2)c2ccccc21 (centres undefined) | – | inactive: 3.81%
O=C(CCCCCN1C(=O)c2cccc3cccc(c23)C1=O)N1CCOCC1 | inconclusive [inhibitor, single point] | –
CC/C=C/C(=O)N1CC2(CC(c3cccc(NC(=O)COc4ccc(Cl)cc4)c3)=NO2)C[C@H]1C(N)=O (some centres undefined) | inconclusive [inhibitor, single point] | –
CCc1ccc(NC(=O)C2CCN(c3nn4c(=O)cc(C)nc4s3)CC2)cc1 | inconclusive [inhibitor, single point] | –
CCOc1ccc2nc(SCC(=O)c3ccccc3)sc2c1 | – | inconclusive: -32.1% [inhibitor]
Cc1ccc(SC(C)C(=O)Nc2ccc(S(=O)(=O)N3CCOCC3)cc2)cc1 (centres undefined) | active: 16.4 µM | –
Nc1c(C(=O)N/N=C/c2ccccc2Cl)oc2nc(-c3ccccc3)cc(-c3ccco3)c12 | active: 20.6 µM | –
O=C(Nc1ccc(F)cc1)c1sc2cc(C(F)(F)F)cnc2c1-c1cccs1 | active: 18.4 µM | –
CC(C)C(=O)NNS(=O)(=O)c1ccccc1[N+](=O)[O-] | – | inactive: -3.96%
COCCCn1c(SCC(=O)Nc2nc3ccccc3s2)nnc1-c1ccoc1C | inconclusive [inhibitor, single point] | –
O=C(c1ccc(Cl)c([N+](=O)[O-])c1)N1CCN(c2ccccc2)CC1 | inconclusive [inhibitor, single point] | –
COc1ccc(S(=O)(=O)N2Cc3ccccc3CC2C(=O)Nc2nccs2)cc1OC (centres undefined) | inconclusive [inhibitor, single point] | –
CC(C)C(=O)N1CCC2(CC1)Oc1ccc(Cl)cc1C(=O)C21CC(c2cccnc2)=NO1 (centres undefined) | – | inactive: -17.2%
Cc1ccc(-c2ccc(=O)n(Cc3ccc(F)cc3Cl)n2)cc1 | inconclusive [inhibitor, single point] | –
COc1cc([C@@H]2C[C@H]3CN(c4ccccc4)C(=O)[C@]34CCCN24)cc(OC)c1OC | inconclusive [inhibitor, single point] | –
O=C(Nc1ccc2c(c1)CCCN2C(=O)c1cccs1)c1ccccc1Cl | inconclusive [inhibitor, single point] | –
Brc1ccc(COc2cccc3cccnc23)cc1 | – | inactive: -11.4%
Cc1cc(C)cc(OCC(=O)NN2Cc3ccccc3C2=N)c1 | – | inconclusive: -36.1% [inhibitor]
COC(=O)CSc1nnc(-c2ccc(OC)cc2OC)o1 | – | inactive: -8.33%
O=C(Nc1nc2cc3c(cc2s1)OCCO3)c1ccc(N2C(=O)CCC2=O)cc1 | – | inactive: -19.3%
CCCCn1cc2c(c1-c1ccc(Cl)cc1)c(=O)n(C)c(=O)n2C | active: 14.6 µM | –
CC12CN(C(=S)Nc3ccccc3)CC(C)(CN(C(=S)Nc3ccccc3)C1)C2=O | – | inactive: -29%
CCCNC(=S)Nc1ccc2nc(-c3ccccn3)c(-c3ccccn3)nc2c1 | – | inactive: -0.616%

SMILES | Potency | activity change, negative = growth inhibition
Cc1noc(NC(=O)c2ccc(F)cc2)c1C#N | inconclusive [inhibitor, partial curve, poor fit] | –
CC(C)Nc1ncnc2c1cnn2Cc1ccc(Cl)cc1 | inconclusive [inhibitor, single point] | –
CCC(Sc1nc2ccsc2c(=O)n1Cc1ccc(C(=O)O)cc1)C(=O)Nc1cccc(OC)c1 (centres undefined) | inconclusive [inhibitor, single point] | –
O=C1CCC[C@@H]2C[C@@]3(C[C@@H]4CCN1[C@H]24)Nc1cc(Cl)ccc1NC3=NC1CCCCC1 | inconclusive [inhibitor, partial curve] | –
O=CNc1cc(-c2ccccc2Oc2ccccc2)cn2c(-c3ccc(F)cc3)cnc12 | active: 10.3 µM | –
O=C(CSc1nnc(-c2ccc(C(F)(F)F)cn2)s1)c1ccc(Cl)cc1 | – | inactive: -0.669%
O=c1nc2n(-c3ccccc3F)c3ccccc3cc-2c(=O)[nH]1 | inconclusive [inhibitor, partial curve] | –
O=C(Nc1ccc(OC(F)(F)F)cc1)c1cc2ccccn2n1 | – | inconclusive: -36.6% [inhibitor]
Cc1cc2ccccc2cn1 | – | inactive: -10.1%
CC(CCl)n1c(=O)c2ccccc2n1S(C)(=O)=O (centres undefined) | – | inactive: -11.4%
CC[C@@]12CCCN3CCc4c(n(c5ccccc45)[C@](O)(C(=O)OC)C1)[C@H]32 | – | inactive: -0.881%
C=CCNC(=O)c1cnc(-c2ccccc2)nc1-c1ccccc1 | inconclusive [inhibitor, single point] | –
N#C/C(=C\c1cn[nH]c1-c1ccc(Cl)cc1)C(=O)NC1CC1 | inconclusive [inhibitor, single point] | –
CC(C)CCN1CCN(Cc2cccc(C(F)(F)F)c2)CC1CCO (centres undefined) | inconclusive [inhibitor, partial curve] | –
COc1ccc(C(=O)CSc2ccc(-c3ccco3)nn2)cc1 | inconclusive [inhibitor, single point] | –
O=C(O)c1ccc(Cl)c(NCc2cccnc2)c1 | – | inactive: 2.02%
CC(C)c1ccc(O)c(NC(=O)c2ncn[nH]2)c1 | – | inactive: -23.6%
Cc1cccn2c(=O)c3cc(S(=O)(=O)c4ccc(F)cc4)c(=N)n(Cc4ccco4)c3nc12 | inconclusive [inhibitor, single point] | –
CCC(CC)NC(=O)c1cc2c(C)nn(Cc3ccccc3Cl)c2s1 | inconclusive [inhibitor, single point] | –
O=C(c1ccncc1)N1CCN(C(=O)c2ccncc2)CC1 | – | inactive: 2.5%
Cc1c(C(=O)N2CCN(c3ccc(F)cc3)CC2)oc2c1C(=O)CCC2 | inconclusive [inhibitor, single point] | –
O=C(N/N=C/c1ccc(Br)cc1)c1ccc(NC(=O)c2ccccc2)cc1 | – | inactive: 6.26%
C[C@@H]1CN([C@@H](C)CO)C(=O)c2cccc(NS(=O)(=O)c3ccc(F)cc3)c2O[C@H]1CN(C)C(=O)NC1CCCCC1 | inconclusive [inhibitor, single point] | –
Cc1ccc(C)c(N2CN(Cc3ccco3)CNC2=S)c1 | – | inactive: 7.47%
COc1ccc(S(=O)(=O)NCCC(C)C)cc1C | inconclusive [inhibitor, single point] | –

SMILES | Potency | activity change, negative = growth inhibition
O=C(NCc1ccc(Cl)cc1)c1cc(=O)[nH]c2ccc(S(=O)(=O)N3CCOCC3)cc12 | – | inactive: -6.58%
Cc1cc(C)cc(NS(=O)(=O)c2cc3c(cc2C)NC(=O)CO3)c1 | inconclusive [inhibitor, single point] | –
Nc1ccccc1-c1nc2ccccc2c(=O)o1 | inconclusive [inhibitor, single point] | –
COc1ccc(-n2ncc3c(SCC(=O)OC(C)C)ncnc32)cc1 | inconclusive [inhibitor, full curve, poor fit] | –
CC1(C)SC2C(NC(=O)Cc3ccccc3)C(=O)N2C1C(=O)O (centres undefined) | – | inactive: 3.7%
CC1(C)CC2(C)OC(=N)C1(C#N)C2(C#N)C#N (centres undefined) | active: 14.6 µM | –
O=c1[nH]c(=S)n(-c2cccc(C(F)(F)F)c2)c(O)c1C=NCCN1CCNCC1 | – | inactive: 17.5%
CC1=Nc2ccccc2/C1=C/c1sc(=S)n(-c2cccc(C(=O)O)c2)c1O | inconclusive [inhibitor, full curve, poor fit] | –
COc1ccc(NC(=O)CSc2nnc(-c3nonc3NC(C)=O)n2-c2ccccc2)cc1 | inconclusive [inhibitor, single point] | –
CCn1cc(C(=O)NC(C)C)c(=O)c2cc(F)c(N3CCN(C(=O)c4ccco4)CC3)cc21 | active: 18.4 µM | –
C=C(C)CNC(=S)N/N=C\c1ccc2c(c1)OCO2 | inconclusive [inhibitor, single point] | –
Cc1ccc(C)c(-c2csc(Nc3ncccn3)n2)c1 | – | inconclusive: -31.4% [inhibitor]
CCC(=O)N(CCC(c1ccccc1)c1ccc2c(c1)OCO2)Cc1ccc(OC(C)C)cc1 (centres undefined) | inconclusive [inhibitor, single point] | –
Cc1cc(C)n(-c2nc3ccccc3nc2Nc2cccc(C)c2C)n1 | – | inactive: -16.2%
CCOc1ccc(CCNS(=O)(=O)c2cc(Br)cc3c2N(C(C)=O)CC3)cc1OCC | inconclusive [inhibitor, partial curve] | –
CN(CCC(=O)Nc1ccc(Cl)cc1)Cc1ccccc1 | inconclusive [inhibitor, partial curve] | –
CCC(Sc1nc2ccccc2c(=O)n1CCc1ccc(OC)c(OC)c1)C(=O)N(CC)CC (centres undefined) | active: 6.51 µM | –
CC1CSc2nc3sc4c(c3c(=O)n21)CCCC4 (centres undefined) | inconclusive [inhibitor, single point] | –
CCc1cccc(C)c1NC(=S)NCc1ccc2c(c1)cc(C)n2C | active: 16.4 µM | –
CCCN(C(=O)Cn1cnc2onc(-c3ccc(F)cc3)c2c1=O)c1cccc(Cl)c1 | inconclusive [inhibitor, partial curve] | –
CCCc1cc(N2CCCC(C(=O)Nc3ccc(OC)cc3OC)C2)n2ncnc2n1 (centres undefined) | inconclusive [inhibitor, single point] | –
COCCCNC(=S)NNC(=O)c1cc(C2CC2)nc2ccccc12 | – | inactive: -0.0588%
Fc1cccc(COc2ccccc2CNc2ccccc2)c1 | – | inactive: -36.2%
O=C(NCc1ccccc1)C(c1ccc(F)cc1)N(C(=O)c1csnn1)C1CCCC1 (centres undefined) | inconclusive [inhibitor, single point] | –
